Experimental data from PubChem BioAssay AID493208 (National Center for Advancing Translational Sciences (NCATS), 2011).
Among all 44,000 compounds or so, about 340 (0.77%) were called active. Inconclusive results (about 5%) are left out. Calls come from the whole dose curve; as a rule, active = well fitted inhibition curve with a large enough effect; inconclusive = small, poorly fitted or top-dose-only effect; inactive = flat fitted curve, though single readings scatter. The list shows a part of the results.

Experiment: Acumen qHTS Assay for Inhibitors of the mTORC1 Signaling Pathway in MEF (Tsc2-/-, p53-/-) Cells: Sytravon;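 note: plate controls were DMSO for no effect and rapamycin for full effect; nearly all actives have a fitted effect of over 50% in size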
Conditions: phospho-rpS6 immunofluorescence/PI, 24 h; series mostly up to 38.3 µM; activity change, negative = inhibition: at the top concentration
How it was run: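 Tsc2-/-, p53-/- MEFs (empty-vector stable line) in DMEM + 10% FBS were treated with compounds 24 h at 37 degree Celsius, fixed, and immunostained for phospho-rpS6 (Alexa-488) with propidium iodide counterstain. Laser-scanning cytometry gave % positive cells, normalized against 7.5 nM rapamycin and DMSO.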

Activity change, negative = inhibition, inactive:
CCc1ccc(-c2nc(SCC(=O)NCCOC)c(-c3ccc(C)cc3)[nH]2)cc1 -5.35%
CC(=O)c1cccc(NC(=O)C2=CC(c3ccco3)=NS(=O)(=O)N2C)c1 -1.48%
COc1ccc(Nc2nnc(-c3ccc(C)c(S(N)(=O)=O)c3)c3ccccc23)cc1 9.28%
COc1ccc(CCNc2oc(COc3ccc(Cl)cc3)nc2C#N)cc1OC 7.51%
CCc1cccc(C)c1NC(=O)c1cnn(-c2ccc(F)cc2)c1-n1cccc1 -1.44%
CSc1nn(Cc2cccc(F)c2)c(N(C(C)=O)C(C)=O)c1S(=O)(=O)c1ccccc1 4.44%
Cc1cccc2sc(N3CCN(C(=O)c4ccco4)CC3)nc12 0.436%
CCOc1ccc(S(=O)(=O)Nc2ccc(-c3ccc(N4CCCC4)nn3)cc2)cc1 -0.333%
Cc1cccc(S(=O)(=O)c2cn(Cc3ccccc3)c3cc(N4CCCC(C)C4)c(F)cc3c2=O)c1 (stereo not drawn) -0.24%
Clc1ccc(CSc2nc(NCCc3ccccc3)c3ccccc3n2)cc1 -0.803%
Cc1cc(NC(=O)C2CCCN(S(=O)(=O)c3cccc4nonc34)C2)ccc1Br (stereo not drawn) 3.53%
COc1ccc(OC)c(CNCc2c(C(=O)O)n(Cc3ccccc3)c3cc(OC)ccc23)c1 -1.61%
CCC(=O)N1CCc2cc(S(=O)(=O)NC(CC(C)C)C(=O)Nc3ccc(CC)cc3)ccc21 (stereo not drawn) -11.4%
O=C(CN1N=C(c2ccc(Cl)cc2)CCC1=O)NCc1ccc(F)cc1 9.58%
O=C1Nc2ccccc2Oc2cc(Oc3ccc(Cl)cc3)ccc21 -6.46%
Cc1ccc(-c2cc(C(F)(F)F)n3nc(C(=O)Nc4ccc(C#N)cc4)cc3n2)cc1 11.4%
CCOc1ccccc1CNC(=O)CCCN1C(=O)CCn2nc(-c3cccn3C)cc21 1.39%
Cc1ccc(CNC(=O)C2CCN(S(=O)(=O)c3ccc4c(c3)oc(=O)n4C)CC2)cc1 2.92%
CCc1ccc(-n2nc(C)c3c(C)cc(=O)n(CC(=O)Nc4ccc(OC)c(OC)c4)c32)cc1 -1.87%
CCOC(=O)c1c(C)[nH]c(C)c1S(=O)(=O)N1CCCC(C(=O)N2CCN(c3cc(C)ccc3C)CC2)C1 (stereo not drawn) -7.26%
CCOc1ccc(CNC(=O)Cn2ncc3c(=O)oc4ccc(C)cc4c32)cc1 1.8%
Cc1ccc(C)c(CN2C(=O)c3ccccc3S(=O)(=O)c3ccc(C(=O)N4CCOCC4)cc32)c1 -7.96%
CCC(CC)C(=O)Nc1ccccc1C(=O)OCc1cc(=O)n2nc(C3CCCCC3)sc2n1 0%
COc1ccc(Cl)cc1N(C)C(=O)Cn1cnc2sc(C)c(S(=O)(=O)N3CCN(c4ncccn4)CC3)c2c1=O 2.96%
COc1ccc(C(=O)N2CCCCC2CCN2CCCCC2)cc1 (stereo not drawn) -2.78%
COc1ccc(Cl)cc1NC(=O)[C@H]1O[C@@H]2OC(C)(C)O[C@@H]2[C@H]2OC(C)(C)O[C@H]21 -3.6%
O=S(=O)(c1cccs1)N1CCN(c2ccc(Cl)cc2)CC1 11.9%
COc1ccc(NC(=O)Cn2cc(C(=O)C3CC3)c3ccccc32)cc1 -10.2%
CCN1CCN(C(=O)c2ccc3c(c2)N(Cc2cc(C)ccc2C)C(=O)c2ccccc2S3=O)CC1 (stereo not drawn) -6.05%
COC(=O)c1cc(NC(=O)CN(c2ccccc2)S(=O)(=O)N(C)C)ccc1Cl -20%
NS(=O)(=O)c1ccc(CCNc2nc3c(-c4cccc(F)c4)nnn3c3ccc(Cl)cc23)cc1 -6.52%
CCOc1ccccc1NC(=O)Cn1nnc2sc3c(c2c1=O)CCC(C(C)(C)C)C3 (stereo not drawn) -3.31%
Cc1ccc(CSc2nc3ccc(NC(=O)COc4ccccc4F)cc3s2)cc1 0.714%
CCCCN(CCCC)S(=O)(=O)c1ccc2oc(C(=O)NCc3ccccc3)c(C)c2c1 0.907%
Cc1cc(C)c(/C=C/c2onc(C)c2S(=O)(=O)N2CCC(C(=O)NCc3ccco3)CC2)c(C)c1 -2.1%
CCOC(=O)c1c(C)[nH]c(C)c1S(=O)(=O)N(C)CC(=O)N1CCN(c2ccccc2OC)CC1 0%
CCOC(=O)N1CCN(C(=O)CN(c2ccc(C)cc2C)S(=O)(=O)c2ccccc2)CC1 5.59%
O=C(CN1C(=O)C2(SCC(=O)N2c2cccc(Cl)c2)c2ccccc21)NC1CCCCC1 (stereo not drawn) 6.63%
O=C(CNS(=O)(=O)c1ccc(Br)s1)N1CCN(c2ccccc2F)CC1 -21.2%
Cc1nn(CC(=O)N2CCN(c3ccccc3)CC2)c(=O)c2cccn12 2.21%
CCc1nn(CC(=O)NCc2cccc(OC)c2)c(=O)c2cc3cc(F)ccc3n12 -1.63%
Cc1ccc(-c2nc3c(cnn3-c3ccccc3)c(=O)n2-c2ccc(Cl)cc2)cc1 1.56%
O=C(COCc1cc(-c2ccco2)on1)Nc1ccc(OC(F)(F)F)cc1 -8.37%
COc1cccc(OC)c1C(=O)Nc1ccc2c(c1)CCCN2S(=O)(=O)c1ccc(C)cc1 -25.2%
Cc1oc(-c2ccc(Cl)cc2)nc1Cn1c(=O)cc(-c2ccccc2)c2c(C)nn(C)c21 3.12%
Cc1ccc(-n2ncc3c(NCCC4=CCCCC4)ncnc32)cc1C -24.5%
COc1ccc(-c2onc(C)c2C)cc1S(=O)(=O)N1CCC(C)CC1 -5.33%
CCc1ccc(NC(=O)c2ccc(CN3C(=O)C(C)=C(c4ccc(C)cc4)S3(=O)=O)cc2)cc1 0.412%
COc1cccc(-c2nc(C(N)=O)c3c(n2)n(-c2ccc4c(c2)OCO4)c(=O)n3C)c1OC -13.9%
Cn1c(C(=O)NCc2cccc(F)c2)cc2cc(S(=O)(=O)N3CCCCC3)ccc21 7.3%
COc1ccccc1CCNC(=O)c1cccn1-c1nnc(N2CCCCC2)s1 -8.79%
O=C(Cn1cc(S(=O)(=O)Cc2ccc(F)cc2)c2ccccc21)NCc1ccccc1 4.33%
CCOc1ccccc1NC(=O)CSc1cc(=O)n(CC)c2ccccc12 -7.97%
CCOc1ccc(-c2cc(C(F)(F)F)c(C#N)c(SCC(=O)Nc3ccccc3)n2)cc1 -0.86%
CC(=O)c1cc(-c2ccccc2)n(CCC(=O)Nc2cc(C)cc(C)c2)c1C 0.306%
Cc1cccc(NC(=O)CSc2nc(C)c(Cc3ccccc3)c(=O)[nH]2)c1 6.96%
CCCNC(=O)CN1C(=O)c2cccnc2Sc2ccccc21 -1.43%
COc1ccccc1N1CCN(C(=O)c2c3c(nc4ccccc24)C(=O)N(C2CCCCC2)C3)CC1 -12.4%
Cc1ccc(C)c(N2CCN(C(=O)c3c4c(nc5ccccc35)C(=O)N(C3CCCCC3)C4)CC2)c1 -0.453%
COc1ccc(-c2nc(CNS(=O)(=O)c3ccc(F)cc3)cs2)cc1 -5.72%
O=C(CSc1nc2c(c(=O)[nH]1)CN(Cc1ccc3c(c1)OCO3)CC2)Nc1ccc(F)cc1 5.9%
CCC(C)NC(=O)c1sc2nc(C)c(C(=O)Nc3ccc(Cl)cc3)c(-c3ccc(Br)cc3)c2c1N (stereo not drawn) 0%
CCCOc1cccc(C(=O)Nc2ccc(-c3nc4ccccc4o3)cc2)c1 3.83%
COc1cc(OC)cc(-n2c(=O)c3ccccc3n(CC(=O)NCCc3ccc(OC)c(OC)c3)c2=O)c1 -11.8%
COc1ccc2cc(CNc3ccc(OC)c(OC)c3)c(=O)n(CC(=O)Nc3ccc(C)cc3)c2c1 -9.39%
O=C(NCCc1ccccc1)c1c[nH]c2ccc(S(=O)(=O)Nc3ccccc3F)cc2c1=O -8.52%
COc1ccc(NC(=O)Nc2nnc(N(C)C3CCCCC3)s2)c(OC)c1 -2.84%
CCOC(=O)c1sc(NC(=O)COc2ccccc2Cl)c(C(=O)OCC)c1C 4.41%
O=C(Nc1ccc(O)c(-c2nc3ccccc3o2)c1)c1ccco1 -1.31%
Cc1ccccc1NC(=O)CSc1nc2c(oc3ccccc32)c(=O)n1-c1ccccc1F -7.8%
CC1CCN(C(=O)c2cc(-c3ccc(Cl)cc3)on2)CC1 -3.51%
CC1=C(C(=O)OCC2CCCCC2)C(c2c(F)cccc2Cl)CC(=O)N1 (stereo not drawn) -18.9%
COc1ccc(CCNC(=O)CCc2c(C)nc3nc(C)nn3c2C)cc1OC 1.69%
CCc1ccc(S(=O)(=O)c2nnn3c2nc(NC2CCCC2)c2sccc23)cc1 -4.16%
COc1ccc(C)cc1NC(=O)CCS(=O)(=O)c1ccc2c(c1)CC(=O)N2C 11.1%
COc1cc(OC)c(NC(=O)Nc2ccccc2OCc2cc(=O)n3cc(C)ccc3n2)cc1Cl 8.52%
COCCNC(=O)c1cc(Sc2ccc(F)cc2F)nc2ccccc12 1.36%
O=C(CSc1ccc2ccccc2n1)Nc1nsc(-c2ccc(Cl)cc2)n1 -2.38%
COc1ccc(-n2ccn(Cc3ccc(C)cc3)c(=O)c2=O)cc1OC -0.818%
O=C(c1ccc2c(c1)N(Cc1ccc(F)cc1)C(=O)c1ccccc1S2(=O)=O)N1CCC(Cc2ccccc2)CC1 -10.8%
COc1ccc(NC(=O)CN(C)S(=O)(=O)c2ccc3[nH]c4c(c3c2)CCCC4)cc1Cl -4.55%
CC(=O)N1c2nc(-c3ccco3)nn2C2(CCCCC2)[C@@H]2CCCC[C@@H]21 -12.4%
Cc1cccc(-n2c(=O)c3c(c4cc(C)ccc4n3C)n(Cc3ccccc3F)c2=O)c1 1.64%
COc1ccc(Cn2c(SCc3ccc(C(=O)NCc4ccccc4F)cc3)nc3cccnc32)cc1 -3.32%
Cc1ccc(Cl)cc1N1C(=O)N(Cc2ccc(C#N)cc2)c2ccccc2S1(=O)=O -3.93%
COc1ccc(C2=Nc3ccc(C)cc3NC(c3ccc(Cl)cc3)=N2)cc1 -0.393%
COc1ccc(Cl)cc1NC(=O)CCCn1c(C)c2cnn(-c3ccccc3)c(=O)c2c1C -0.352%
COc1ccc(CNC(=O)c2cccc(NC(=O)N3CCSc4ncccc43)c2)cc1 -0.299%
COc1cccc(Cn2c(=O)n(-c3ccc(Br)cc3F)c(=O)c3sc4ccccc4c32)c1 -0.36%
Cc1ccc(NC(=O)CC2Nc3cccc4cccc(c34)NC2=O)cc1 (stereo not drawn) -28%
CCCCNC(=O)CSc1nc2ccccc2nc1Cc1ccc(Cl)cc1 0%
COc1ccc(NC(=O)CCNS(=O)(=O)c2cccc3nsnc23)cc1OC -19.2%
COc1ccc(N(Cc2ccccc2)C(=O)c2nc(SC)ncc2Cl)cc1 -15.1%
